# Out of some 1,300 compounds screened, about 120 (9.2%) were called active. Inconclusive means that the source gave no clear call. Such entries were picked first, then a sample of the others. Calls come from the whole dose curve; as a rule, active = well fitted activation curve with a large enough effect; inconclusive = small, poorly fitted or top-dose-only effect; inactive = flat fitted curve, though single readings scatter. Potencies beside an inconclusive call are fits to weak or partial responses and may not hold up.
# Biological target: Luciferin 4-monooxygenase (Photinus pyralis) (UniProt P08659)
# Test: Firefly luciferase (FLuc-C-HiBiT) SDR gain of signal screen - plus ATP;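 note: signal reports ligand binding via conformational change of the enzyme rather than luciferase catalysis; nearly all actives have a fitted effect of over 55% in size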
# Details: purified FLuc-C-HiBiT + ATP, HiBiT complementation luminescence; series mostly up to 32.7 µM
# Method in brief: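 In this screen, ligand-induced changes in FLuc-C-HiBiT structure alter HiBiT complementation luminescence. Enzyme, 10 nM, sat with 10 uM ATP and compounds >30 min at room temperature; Nano-Glo HiBiT was read 5-10 min later.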
# Potency is the fitted concentration of half-maximal effect; tags give direction and shape of the fitted curve.
# Chain of UniProt P08659 (P08659 whole entry, looked up): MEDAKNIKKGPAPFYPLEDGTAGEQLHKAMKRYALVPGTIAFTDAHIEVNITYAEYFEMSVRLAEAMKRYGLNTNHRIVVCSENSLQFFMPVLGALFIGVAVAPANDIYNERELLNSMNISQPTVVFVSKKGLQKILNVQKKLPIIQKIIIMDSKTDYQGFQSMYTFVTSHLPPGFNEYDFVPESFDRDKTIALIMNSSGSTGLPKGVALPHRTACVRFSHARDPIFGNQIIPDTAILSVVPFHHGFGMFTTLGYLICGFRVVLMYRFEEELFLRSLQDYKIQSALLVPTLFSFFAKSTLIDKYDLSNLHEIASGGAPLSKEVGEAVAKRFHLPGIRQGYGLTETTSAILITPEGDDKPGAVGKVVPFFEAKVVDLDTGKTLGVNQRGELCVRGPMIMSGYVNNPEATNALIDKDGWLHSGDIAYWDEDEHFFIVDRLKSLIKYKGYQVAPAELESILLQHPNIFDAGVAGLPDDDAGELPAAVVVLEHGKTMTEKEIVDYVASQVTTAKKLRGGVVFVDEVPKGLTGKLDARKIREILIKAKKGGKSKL
row,Structure (SMILES),Potency
1,Fc1ccccc1Cc1cn2cc(-c3ccc(Cl)cc3)nc2s1,"inconclusive: 1.97 µM [activator, full curve, poor fit]"
2,O=C(Cc1cccc(Cl)c1)N1CCn2c(nnc2-c2ccccc2)C1,inactive
3,O=C(O)c1ccc(-c2noc(-c3ccc(C(F)(F)F)cc3)n2)cc1,active: 0.442 µM
4,Cc1csc(NC(=O)c2nc3c(o2)CCN(Cc2cccc(F)c2)CC3)n1,"inconclusive: 11.4 µM [activator, partial curve, poor fit]"
5,Cc1oc(C(O)c2ccccc2F)nc1C(=O)Nc1ccc(N2CCOCC2)cc1 (stereo unspecified),"inconclusive: 22.7 µM [activator, partial curve, poor fit]"
6,Oc1ccccc1CN1CCNc2cc(Nc3ccccc3)ncc2C1,inactive
7,O=S(=O)(c1cccc(C(F)(F)F)c1)n1c(/C=C/c2ccccc2)nc2ccccc21,"inconclusive: 2.21 µM [activator, full curve]"
8,COc1cccc(-c2cccc(COc3cnc4c(ccn4CC(=O)O)c3)c2)c1,inactive
9,CCCn1ncc(-c2nc(-c3ccncc3)no2)c1C,"inconclusive: 11.1 µM [activator, partial curve]"
10,O=C(NCc1ccc(F)cc1Cl)C1CCN(C(=O)c2ncn3c2COC(c2ccccc2)C3)CC1 (stereo unspecified),"inconclusive: 11.1 µM [activator, partial curve]"
11,COc1ccc(C(=O)Nc2cccc(-c3nc4ccccc4s3)c2)cc1,inactive
12,O=C1NCCCCCCN(C(=O)Nc2ccc3c(c2)OCCO3)[C@H]2CCC[C@@H]12,"inconclusive: 11.1 µM [activator, partial curve]"
13,Cc1cccc(-c2cccc(NC(=O)C3CCCN(C(=O)CC(F)(F)F)C3)c2)c1 (stereo unspecified),inactive
14,c1coc(-c2nc3nccc(-c4ccc5c(c4)OCCCO5)n3n2)c1,"inconclusive: 0.881 µM [activator, full curve, poor fit]"
15,COc1cccc(OCc2nc3ccccc3n2Cc2ccccc2)c1,inactive
16,CNC(=O)c1cccc2c1CCN2C(=O)Nc1ccc(C)cc1,active: 0.442 µM
17,Cc1ccc(C2Cn3cnc(C(=O)N4CCC(C(=O)NCc5ccco5)CC4)c3CO2)cc1 (stereo unspecified),"inconclusive: 4.95 µM [activator, partial curve]"
18,Cc1noc(-c2cccn3c(CNC(=O)c4ccc(C(C)(C)C)cc4)nnc23)n1,"inconclusive: 14 µM [activator, partial curve]"
19,Cc1cccc(C(=O)Nc2nc3c(s2)CCCC3)c1,"inconclusive: 4.42 µM [activator, partial curve, poor fit]"
20,C[C@H](C(=O)NCCN1CCOCC1)C1CC[C@@]2(C)Cc3sc(CSc4ccccc4)nc3[C@@H](C)[C@@H]2[C@H]1O (stereo partly specified),inactive
21,Clc1ccc(-c2cc3c(cn2)CN(Cc2ccncc2)CCN3)cc1,"inconclusive: 16.1 µM [activator, partial curve, poor fit]"

# From PubChem BioAssay AID1963319 (National Center for Advancing Translational Sciences (NCATS), 2024)
